Measured values: a collection of fitness landscapes (doi:10.1016/j.celrep.2020.107928)
In all, about 81,000 sequences were measured (“one-hybrid fitness for binding NBS DNA”: median about -0.1, highest 2% from about 0.36 on). The list shows a part of the results.

B1: Caulobacter ParB omega fusion; a variant is named by its letters at X, in order, B8GW30 (parent)
chain: MESVVVGEPGMSEGRRGLGRGLSALLGEVDAAPAQAPGEQLGGSREAPIEILQRNPDQPRRTFREEDLEDLSNSIREKGVLQPILVRPSPDTAGEYQIVAGERAWRAAQRAGLKTVPIMVRELDDLAVLEIGIIENVQRADLNVLEEALSYKVLMEKFERTQENIAQTIGKSXSHVANXMRLLXLPDEVQSYLVSGELTAXHARAIAAAADPVALAKQIIEGGLSVRETEALARKAPNLSAGKSKGGRPPRVKDTDTQALESDLSSVLGLDVSIDHRGSTGTLTITYATLEQLDDLCNRLTRGI

Variants of: B1
Test: one-hybrid fitness for binding NBS DNA (the Noc-binding site; scaled: cognate 1, non-cognate 0); higher = stronger binding
Settings: with NBS DNA site
Method in brief: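 Fitness here means the log change in variant-to-wild-type read ratio between plasmids sequenced before and after selection. That scale was set so cognate equals 1 and non-cognate equals 0. The selection was a bacterial one-hybrid screen of Caulobacter ParB libraries, four specificity codons randomised, in E. coli USO carrying a HIS3 reporter with the site 19 bp from the promoter, grown 48 hours at 37°C on M9-minus-histidine with 0.1 mM IPTG and 5 mM 3-AT.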

one-hybrid fitness for binding NBS DNA, 0.327:
QRTI

one-hybrid fitness for binding NBS DNA, 0.414:
QYWR

one-hybrid fitness for binding NBS DNA, 0.277:
QYET

one-hybrid fitness for binding NBS DNA, 0.661:
RRTS

one-hybrid fitness for binding NBS DNA, 0.203:
IRVQ

one-hybrid fitness for binding NBS DNA, ≤ 0.2:
LGNG
RFEW
LGEF
VDGV
KQSS
PYFY
KLMR
FFPG
RQML
TKTP
QNEM
RWGM
HHMR
QVFI
NPRS
IRGV
QYLA
CRVE
SRSK
DDAS
HQSI
RHIL
ITYY
LYDA
DRCR
TDHS
FTGV
IPML
QNGY
SGLN
TVSL
PGKC
PRAC
KSFR
FLFC
MRVF
DYFS
CLHC
DKTG
WENE
NSSG
TREY
FQYR
GQNT
AYTC
PAWG
KVRI
VAIT
RSVD
FYMG
IYER
VKPP
VNTE
CTQP
RSAL
ATIT
LNKM
MMML
TKDS
QHTF
PTVG
RPPE
KKTI
KGSM
MWIF
SSNP
PPEG
GWTC
IQCV
NKNM
YYMC
AAVK
IYDP
HATY
QMAV
HSWF
DNMW
HQIS
RIPL
KYLP
ESHL
VFVF
SIHR
MVHG
CLSK
NNGG
ISCK
HSVF
HNRA
SFPV
LKRK
QLGK
QKIK
QDQC
DTKN
YKSR
PERA
PDME
KPHM
VSYI
SLSK
MPNM
MEKW
HSWP
VALG
PRCF
WMPP
RGTR
LMNY
WGNG
GKWG
HIGR
GERR
SWAR
GPYR
RVMD
IVSC
QWIS
TTAE
EVNE
PPQM
SIQN
CTRH
SCNR
PWCR
LLTL
SAWC
VAGW
HLRF
RCWK
GTTL
RESW
MMVT
WTHF
TVAI
GMLG
HKFT
WNKG
HVCC
LERF
ADHS
RACD
HLRC
DATP
VVPA
TTMG
ILKH
NSFR
GPIV
PLEG
AGPI
PMNG
RWWC
VCQY
GVIP
DLPA
KYLR
AVHR
TQPK
FKTG
TSRF
WFSV
RIMD
HNFA
FHMR
EGRC
TGCY
HCWG
RALW
SRVT
HRMW
NQCI
TSQV
RYSP
CPPH
LRIV
RQCQ
FKNT
LINL
GLTW
RINQ
KAWC
CTKS
RFHL
VASV
LTIP
WQMC

one-hybrid fitness for binding NBS DNA, 0.229:
TYKR

one-hybrid fitness for binding NBS DNA, 0.712:
RRKA

one-hybrid fitness for binding NBS DNA, 0.255:
QYPT
